Source: the supplement of paper PMC3334620
Over roughly 33,000 sequences, “E-score (-0.5 to 0.5)” has its median near -0.054; the highest 2% begin near 0.35. The list shows a part of the results.

biological target: T1, Stb5 (UniProt P38699); test: PBM E-score (8-mer binding enrichment) (E-score (-0.5 to 0.5)); higher = stronger / more preferred TF binding; most listed sequences are background and not binding sites; conditions: protein concentration: 200 nM; construct: GST-full length
T1 sequence: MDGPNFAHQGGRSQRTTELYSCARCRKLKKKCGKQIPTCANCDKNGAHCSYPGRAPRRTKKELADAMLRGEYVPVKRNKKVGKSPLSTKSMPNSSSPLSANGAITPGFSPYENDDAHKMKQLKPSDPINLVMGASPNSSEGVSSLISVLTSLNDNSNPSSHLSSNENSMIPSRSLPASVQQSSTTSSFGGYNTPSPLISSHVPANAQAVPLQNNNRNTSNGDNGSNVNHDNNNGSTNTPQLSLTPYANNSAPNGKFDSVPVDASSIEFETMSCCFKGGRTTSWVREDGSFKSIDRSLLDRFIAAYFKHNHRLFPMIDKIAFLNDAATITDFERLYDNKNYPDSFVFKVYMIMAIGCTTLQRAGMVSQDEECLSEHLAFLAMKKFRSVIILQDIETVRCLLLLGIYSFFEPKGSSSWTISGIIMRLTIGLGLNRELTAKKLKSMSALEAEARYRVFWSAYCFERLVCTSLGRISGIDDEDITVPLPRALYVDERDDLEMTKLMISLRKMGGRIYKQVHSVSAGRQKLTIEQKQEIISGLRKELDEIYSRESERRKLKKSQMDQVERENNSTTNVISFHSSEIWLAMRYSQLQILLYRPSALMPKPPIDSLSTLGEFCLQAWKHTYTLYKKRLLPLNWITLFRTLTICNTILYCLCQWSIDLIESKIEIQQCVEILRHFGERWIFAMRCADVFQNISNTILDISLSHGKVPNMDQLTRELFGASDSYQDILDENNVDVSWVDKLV
Outline: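 The E-score, a modified Wilcoxon-Mann-Whitney statistic, was computed by the Universal PBM Analysis Suite for every ungapped eight-base word pooled with its reverse complement. Scans behind it were normalised with masliner after bound GST-tagged yeast transcription factors were detected with fluorescent anti-GST. The proteins, at about 100-200 nM, had been applied to universal all-10-mer Agilent arrays made double-stranded by primer extension.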

Sequence	PBM E-score
TGCTGGAA	-0.143
CAACACAG	-0.293
GGCGTTGA	0.0551
GTTACTGA	0.0915
AACGCGTA	0.0518
AGAACACG	-0.123
GATATTAC	0.223
AGCGGTGC	0.396
CGCGTTTC	-0.107
CATGCAGA	-0.212
AGCGGCAC	0.355
CTAGGCTA	-0.053
AATCGTAT	-0.0497
AGGTGTAG	-0.304
GGGTAACC	0.00382
AAATATTC	-0.0591
CGAGTAAA	-0.0862
CCCTTGGC	-0.224
AAATAGAA	0.023
GTCTGGGA	-0.23
AATAATGT	-0.0122
CACATGAC	-0.243
CGAACGGA	0.312
ACAAACAT	0.0373
AAAAGCTG	-0.13

Sequence	PBM E-score
GTAACGCA	-0.0529
CCAGAGTC	-0.105
ATGTCTTA	-0.199
CCAGCTAA	-0.286
ATTCAGTA	-0.0644
ACACGGGT	-0.0903
ACCTACAC	-0.273
GACCGGCA	0.32
GTGATGAA	-0.251
TCCCAAGA	-0.232
GTAATGCA	-0.124
CCAAGTGC	-0.117
GACCCGGA	0.228
GACATGGC	-0.145
CATACCCG	0.122
ACACGCCC	0.0486
GGAATCAA	-0.0513
GAGTACAA	-0.102
ATAGTGAA	-0.2
CCCGAGCA	-0.166
CGGACAAC	0.144
GCTGTTCA	-0.251
ACAGAATA	-0.112
GAATACAC	-0.0302
TAGGACAA	-0.287

Sequence	PBM E-score
GCAAGTGA	-0.0206
AGGTTACA	-0.182
CCCGTGGC	0.127
AATCCAAA	0.0752
GCCACCTA	-0.0858
GTGCAGCA	-0.0174
CATGGGCA	-0.0853
AATTCACG	-0.237
CCCCTCAA	-0.0923
AAGGTGTG	-0.24
GGGCTTAC	0.338
ACAGGGCT	-0.219
GTACCCCA	-0.121
CTACGTCC	0.226
ACATTACC	0.119
ATTTAAGA	-0.173
ACGTAGCC	-0.129
ATTAGCCA	-0.337
CCGGGGAC	0.202
GTCTATCA	-0.0088
ACATGATA	-0.0498
ACCTCGAA	-0.122
ACAGGAAA	-0.0972
ACCGGAAG	0.181
AGAGCTAT	-0.195

Sequence	PBM E-score
GTCTACAC	0.0371
CATCCCTA	-0.158
CCTACTGC	-0.271
AACTAACA	0.0185
GTCAGTAA	-0.0707
AATATCCG	0.39
AGTAACCA	-0.146
AACCACTC	-0.138
AAGCATCT	-0.189
CGAGCGAC	-0.15
CCCTATCA	-0.21
ACAATTGT	-0.239
ACCTATGA	-0.124
AAGTAGGG	-0.236
CAACCTAC	-0.0287
AACTGGGC	-0.0587
AGGGCCGG	0.271
AACTTTTC	-0.103
GGGACGCA	-0.134
AACATCCC	0.149
CAGTATTA	-0.141
ACGAGAAT	0.00633
CGCACTAG	-0.162
CTATCCCC	0.276
AATTGACC	0.174

Sequence	PBM E-score
CAGGACGA	-0.0341
AGGTTCCC	-0.226
CGCTCTAG	0.131
AAACTGCA	-0.273
CTCTGTAA	-0.0939
GCTTCCGA	0.0339
ATATGGTG	0.0157
CCAACTTC	-0.242
GACCAGTA	-0.164
GTGAATTA	-0.147
ACCCCCAG	-0.249
AGCTTCCA	-0.186
CTTAGAGC	0.0404
ACAGAGGT	-0.243
GGGTGGTA	-0.0756
CGTTGAAC	0.0757
AGCGATAA	0.141
CGTAACAC	0.132
ACAGGCCT	-0.206
GACCACGC	-0.186
CCACACGC	-0.0412
TCTCGCCA	-0.0843
CGTTGTTC	0.0333
CAAGTAAA	0.123
ACCTGGTC	0.138

Sequence	PBM E-score
CGTGCTAC	0.0172
CTGGTAGA	0.0406
ACAATTTC	0.00176
CATTCGGA	0.146
CCATCCAA	-0.242
CGGGGTAA	0.424
ATCTGCCG	0.287
CTCGTGAC	-0.163
ACGACCAA	-0.186
ACACTTCG	-0.128
CACAGAGG	-0.166
GGACCTAC	0.239
CCTGGCCG	-0.135
AAATTTCT	-0.262
CCTATGCA	-0.158
AGGTAATG	-0.0324
GCTTGGAA	-0.213
AATTTAAA	0.056
ACACGTAC	-0.258
CAACGGTC	0.191
AGAGGCGA	-0.261
AGAGGCAA	-0.228
GCCCCATA	0.0184
ACCTTCTA	-0.207
GGAGGCCA	-0.138

Sequence	PBM E-score
GAGCAATC	-0.0555
CCTACGCG	0.015
AGTGCTCG	-0.311
GCTAGGAA	-0.191
CCAACAGA	-0.173
CACCTACC	0.0372
CAGAAAAA	-0.17
CATTCTAG	-0.236
GGGCTAAA	0.266
ATCTCGAG	-0.131
CGGGTTTA	0.467
AGCGGGGA	0.375
ACACCGCT	0.419
ACAGAGGC	-0.0371
ATAAGTAC	0.133
CCAAGGCG	0.117
ATTAAGGG	-0.0544
GACACCGC	0.454
CGTTTTTC	0.0114
CCGCAGAC	0.165
AAGAAGGA	-0.255
TGAGTGCA	-0.0559
AAGGATAT	0.0815
GAGTCAAC	-0.114
CCCGCAAG	0.0585

Sequence	PBM E-score
ACACCGCA	0.44
AACACCCG	0.306
AATTTTTA	0.0864
AATTAGGA	-0.0648
CGCTTTAC	0.0821
GCCAAGGA	-0.0748
AACGGGGA	0.288
CGCGGACA	0.315
CGTGTTTA	0.112
GCCTGCGA	-0.155
TCATCCAA	-0.191
AATGAACT	-0.158
GCAATTGA	-0.0107
GCGGGAGA	0.0756
CTGTTAGC	-0.204
ACTAAATC	0.104
CACACGGC	0.17
AAAGATGA	-0.0816
CAGTATAG	-0.095
AGATTGAG	-0.181
GGAAGTGA	-0.00876
CAATCACC	0.254
AAGATGAC	-0.255
CGCGCGCC	0.184
CAAAACGC	0.145

Sequence	PBM E-score
CCGAACGA	0.147
GGGAAACA	0.0246
ATTTTTTA	0.0317
AATGTATG	-0.0396
AGCCCGCG	0.334
TGTCGGAA	0.26
GATCGCCA	-0.0139
GACCGGAA	0.21
CATCCATG	-0.205
CAAACGAC	-0.149
AGGGCGAA	-0.0668
AAAGCGTG	-0.198
CCTGAGGC	-0.0476
CCAGCCCA	-0.0866
CACTCTTA	-0.179
GACACCTC	-0.0935
CTTGAAAC	0.0595
GCGTGTCA	0.0804
GCCCGGGC	0.224
ACTCCAGA	-0.267
CTTCGACA	-0.252
ACTAGTAG	0.0429
AGAACGAT	-0.324
ATGCGCAC	-0.0251
CGGAATAC	0.077

Sequence	PBM E-score
AGGTCTCA	0.0073
ATCGTACA	-0.121
AGGAAGAG	-0.222
CATCCTAG	-0.116
ACACTCTA	-0.161
ACGGAGAG	0.115
TACTAAAA	0.0255
TCCTCACA	-0.0217
ACCCGTCT	0.0605
AAATGTCA	0.054
GAGAGTGA	-0.349
CATTCCAA	-0.208
CGCCAGAA	0.053
CTAGAAGA	-0.173
ACCGGCCC	0.336
AAGCTCCA	-0.0231
TTAGGAAA	0.0483
CGGGTATC	-0.0268
GCGGTCGA	0.0836
AGGAATAC	0.0242
TGGGGCAA	-0.247
CATAAAGC	-0.0703
GGGTTATA	0.257
ATACACAG	-0.113
ATATTTAG	-0.0484

Sequence	PBM E-score
GATCCGGA	0.227
ATACGGCG	0.236
AATTTCGC	-0.0602
ATAGCATC	-0.0173
ACACGGCT	0.0007
AATTGCTG	-0.056
ATACCAAC	0.0376
CATACGCG	-0.0103
GCCATGAA	-0.24
CCCTTGCA	-0.16
GGAGACGA	-0.0527
GTCAGACA	-0.0898
ATGCGGCC	0.119
CGGCCACC	0.104
GCATCGAC	-0.101
TAACCCCA	0.195
CCAATGAC	-0.105
ATCAGCTG	-0.038
CCAGGCGA	-0.315
GATCGTTA	-0.0591
CACCAGAA	-0.107
TCCTAAAA	0.0507
GATGACGA	-0.302
AGGACACA	-0.108
CTTCCGAA	0.27

Sequence	PBM E-score
AGGAATCA	-0.082
AGCCCTGA	-0.144
GAGTCGTA	-0.223
ACTGAATC	-0.0294
GGCCCGTA	0.226
AATTCTAT	-0.282
CCTTTGCG	0.03
GTTGTGTA	-0.145
CTTGTATA	0.0149
CCACCCCC	-0.037
CAAGAAAG	-0.0704
CCAATCAC	-0.157
TCCCGGCA	0.243
TCTAACAA	-0.148
AGGAACCA	-0.14
ATGTGCTG	-0.162
AGTACTGC	-0.144
GTCTGTGA	-0.203
GAAAATCA	0.0921
CAGGACAA	-0.122
CCGGCCGC	0.211
CCGTACGA	0.0295
AGTCATGC	-0.14
CCCACGTA	-0.253
CTTCACCA	-0.194

Sequence	PBM E-score
AGGAAATA	0.00598
ACACTCAG	-0.227
AATTGTAT	-0.223
CACTTCCC	-0.0823
ATTTTGGA	0.14
TGTCAAAA	0.00068
ACAGTGTC	-0.0649
CTCTAGGA	-0.27
CTGAAATC	-0.172
AAAAAAGG	-0.0775
AGGATATC	-0.0575
ATAGTCAC	-0.0899
AGTGTCCG	0.233
ATCCGGGA	0.0192
GCTCTGAA	-0.166
ACGGTAAC	0.238
AAGGTCCC	-0.236
CTTGATCA	-0.208
CAGACCGA	0.174
ACGAATCT	-0.0809
GCCACAAA	-0.00122
CGATTCAA	-0.0358
CATGTGGA	-0.218
ATCACACC	0.274
GGGCTCAC	0.0952

Sequence	PBM E-score
AGACGAAC	-0.397
ACCAGGTC	-0.0527
CTCTACAC	-0.106
CCTGCAAC	-0.128
ATACAGGC	-0.176
ATTAAATA	0.058
AGATGTAC	-0.161
ATTATCAG	0.0804
CGATGAGA	-0.024
AGGGTAAC	-0.0108
CCTATGTA	-0.0975
GTATAGAC	-0.0584
AGCAGGTA	-0.191
CAAACCGG	0.211
CGCAAACG	0.0438
ACCAAGGC	0.0686
CGGCGCTA	0.447
GCAGATGA	-0.254
AATTGCTA	-0.0566
